Only a part is listed here, and it is no random draw. The list includes weakly bound sequences.

Experimental findings from article PMC5700166 are described below.

Holding throughout (experiment): protein-binding microarray (PBM)
What all share (conditions): PBM: ~300 nM protein, 6 mM HEPES pH 7.8, 80 mM KCl, 0.5 mM EDTA, 0.5 mM EGTA, 6% glycerol, 35 ng/ul poly-dIdC, 1% milk, 1 h, room temperature; Ap Aiptasia and Nv Nematostella (sea anemones) / Co Capsaspora / Aq Amphimedon (sponge) / Dm Drosophila / Hu human; RHD is the Rel homology domain; high values mean tight binding; most listed sequences are background and not binding sites; double strand, one strand shown

The target of one test is T1, GST-Ap-NF-kB RHD (UniProt A0A913YAJ5).
T1 sequence: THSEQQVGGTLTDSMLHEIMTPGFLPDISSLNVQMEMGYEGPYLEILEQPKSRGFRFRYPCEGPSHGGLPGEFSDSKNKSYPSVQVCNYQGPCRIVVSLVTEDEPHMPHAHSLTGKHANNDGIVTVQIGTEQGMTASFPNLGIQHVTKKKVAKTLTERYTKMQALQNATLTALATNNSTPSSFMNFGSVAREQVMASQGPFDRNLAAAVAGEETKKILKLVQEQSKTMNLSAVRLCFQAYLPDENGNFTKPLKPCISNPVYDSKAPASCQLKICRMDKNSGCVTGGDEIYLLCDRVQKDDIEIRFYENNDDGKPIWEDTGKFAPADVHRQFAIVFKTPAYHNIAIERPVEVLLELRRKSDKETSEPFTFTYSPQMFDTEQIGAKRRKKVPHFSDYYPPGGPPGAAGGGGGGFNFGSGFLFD

The target in test [1] is T2, GST-Nv-NF-kB (Cys allele) (UniProt E5G601).
T2 sequence: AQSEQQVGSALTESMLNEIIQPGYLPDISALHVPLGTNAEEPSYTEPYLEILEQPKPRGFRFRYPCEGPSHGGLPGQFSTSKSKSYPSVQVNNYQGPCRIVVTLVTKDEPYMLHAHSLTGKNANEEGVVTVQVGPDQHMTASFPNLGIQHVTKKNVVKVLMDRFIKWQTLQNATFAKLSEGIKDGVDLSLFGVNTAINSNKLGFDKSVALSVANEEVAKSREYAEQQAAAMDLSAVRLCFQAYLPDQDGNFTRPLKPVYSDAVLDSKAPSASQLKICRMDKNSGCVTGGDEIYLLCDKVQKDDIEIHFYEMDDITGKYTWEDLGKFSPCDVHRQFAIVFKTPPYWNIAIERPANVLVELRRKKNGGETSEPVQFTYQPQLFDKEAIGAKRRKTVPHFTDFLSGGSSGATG

A further test addresses T3, GST-Co-NF-kB (UniProt F1ARL5).
T3 sequence: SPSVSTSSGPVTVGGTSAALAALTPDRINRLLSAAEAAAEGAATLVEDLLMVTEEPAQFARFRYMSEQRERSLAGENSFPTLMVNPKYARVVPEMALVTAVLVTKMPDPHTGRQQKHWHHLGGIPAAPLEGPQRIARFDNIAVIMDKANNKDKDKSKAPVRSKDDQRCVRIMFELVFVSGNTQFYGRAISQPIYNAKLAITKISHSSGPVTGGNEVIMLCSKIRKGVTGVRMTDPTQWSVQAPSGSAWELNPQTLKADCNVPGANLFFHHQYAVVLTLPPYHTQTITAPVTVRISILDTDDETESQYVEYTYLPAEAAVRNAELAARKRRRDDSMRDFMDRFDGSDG

A further test addresses T4, GST-Dm-Relish (UniProt Q94527).
T4 sequence: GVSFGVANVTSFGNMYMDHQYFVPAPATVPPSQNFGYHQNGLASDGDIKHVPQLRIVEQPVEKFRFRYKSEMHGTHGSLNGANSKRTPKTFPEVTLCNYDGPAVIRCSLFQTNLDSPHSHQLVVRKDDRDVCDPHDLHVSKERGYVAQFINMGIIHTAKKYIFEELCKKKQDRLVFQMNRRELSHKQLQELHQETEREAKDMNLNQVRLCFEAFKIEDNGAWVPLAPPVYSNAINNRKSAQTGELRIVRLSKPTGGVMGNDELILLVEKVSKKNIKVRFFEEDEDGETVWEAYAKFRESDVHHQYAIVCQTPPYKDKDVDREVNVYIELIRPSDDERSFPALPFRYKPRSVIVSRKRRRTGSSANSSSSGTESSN

The target in the next test is T5, GST-Aq-NF-kB (UniProt A9Y5G7).
T5 sequence: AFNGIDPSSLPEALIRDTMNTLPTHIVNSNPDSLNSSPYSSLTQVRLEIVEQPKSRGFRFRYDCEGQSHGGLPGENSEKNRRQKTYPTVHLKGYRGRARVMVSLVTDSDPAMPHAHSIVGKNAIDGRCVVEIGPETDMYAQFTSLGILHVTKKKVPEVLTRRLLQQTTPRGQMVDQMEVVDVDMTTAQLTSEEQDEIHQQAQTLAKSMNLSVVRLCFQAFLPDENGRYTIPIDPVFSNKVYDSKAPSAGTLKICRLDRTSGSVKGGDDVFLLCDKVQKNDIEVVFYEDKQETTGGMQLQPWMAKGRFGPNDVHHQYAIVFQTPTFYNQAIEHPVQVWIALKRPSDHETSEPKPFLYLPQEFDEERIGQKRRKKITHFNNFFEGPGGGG

Regarding “CCGATTAACATCATCATAGTCTTTGATGTTAATCGGGTCTTGATTCGCTTGACGCTGCTG”, the binding signal was -0.817 z-score in the test with GST-Ap-NF-kB RHD; 0.0931 z-score in test [1]; 0.0743 z-score with GST-Co-NF-kB; -0.573 z-score with GST-Dm-Relish; -0.428 z-score in the test with GST-Aq-NF-kB.
The matching figures for “CCGATTAACATCATTGTAGTCCATGATGTTAATCGGGTCTTGATTCGCTTGACGCTGCTG”: -0.564 z-score, -0.14 z-score, 0.195 z-score, -0.55 z-score and -0.294 z-score.
The matching figures for “CCGATTAACATCAACAGGTCCACTGATGTTAATCGGGTCTTGATTCGCTTGACGCTGCTG”: 0.241 z-score, -0.773 z-score, -0.351 z-score, -0.483 z-score and -0.372 z-score.
As to “CCGATTAACATCAAATGCAGTTTTGATGTTAATCGGGTCTTGATTCGCTTGACGCTGCTG”, the binding signal was -1.79 z-score with GST-Ap-NF-kB RHD; -0.752 z-score in test [1]; -1.27 z-score with GST-Co-NF-kB; -0.561 z-score with GST-Dm-Relish; -0.685 z-score with GST-Aq-NF-kB.
The matching figures for “CCGATTAACATCACTATAGGCCGTGATGTTAATCGGGTCTTGATTCGCTTGACGCTGCTG”: -0.649 z-score, 0.207 z-score, -0.129 z-score, 0.134 z-score and -0.413 z-score.
“CCGATTAACATCAAAGCGTACTGTGATGTTAATCGGGTCTTGATTCGCTTGACGCTGCTG”: the binding signal in the test with GST-Ap-NF-kB RHD is -0.353 z-score; in test [1], -1.21 z-score; with GST-Co-NF-kB it was -0.618 z-score; in the test with GST-Dm-Relish it was -0.558 z-score; in the test with GST-Aq-NF-kB, -0.22 z-score.
The matching figures for “CCGATTAACATCATATCTTCAGGTGATGTTAATCGGGTCTTGATTCGCTTGACGCTGCTG”: 0.356 z-score, -0.525 z-score, -0.0345 z-score, 0.394 z-score and 0.275 z-score.
With “CCGATTAACATCAGGGGAAACCCTGATGTTAATCGGGTCTTGATTCGCTTGACGCTGCTG”, the binding signal with GST-Ap-NF-kB RHD came out at 10.2 z-score; in test [1] it was 11.4 z-score; with GST-Co-NF-kB, 7.22 z-score; with GST-Dm-Relish it was 10 z-score; in the test with GST-Aq-NF-kB, 9.57 z-score.
For the sequence “CCGATTAACATCACACTGGTTATTGATGTTAATCGGGTCTTGATTCGCTTGACGCTGCTG”, the binding signal with GST-Ap-NF-kB RHD is -0.0888 z-score; in test [1] it was -0.866 z-score; with GST-Co-NF-kB, -0.16 z-score; in the test with GST-Dm-Relish it was 0.231 z-score; with GST-Aq-NF-kB, -0.358 z-score.
The matching figures for “CCGATTAACATCAGGGTCTATGATGATGTTAATCGGGTCTTGATTCGCTTGACGCTGCTG”: -0.221 z-score, -0.0391 z-score, 0.0334 z-score, -0.0406 z-score and 0.251 z-score.
For “CCGATTAACATCAAGAGTTTTCCTGATGTTAATCGGGTCTTGATTCGCTTGACGCTGCTG”, in that order: -0.00557 z-score, -0.171 z-score, -0.218 z-score, 0.843 z-score and 0.301 z-score.
Regarding “CCGATTAACATCACACCGCATACTGATGTTAATCGGGTCTTGATTCGCTTGACGCTGCTG”, the binding signal with GST-Ap-NF-kB RHD was 0.0927 z-score; in test [1] it was 0.309 z-score; with GST-Co-NF-kB, 0.953 z-score; in the test with GST-Dm-Relish, 0.318 z-score; with GST-Aq-NF-kB it was -0.231 z-score.
For “CCGATTAACATCATGGTGGTACCTGATGTTAATCGGGTCTTGATTCGCTTGACGCTGCTG”, in that order: 0.666 z-score, 0.581 z-score, -0.313 z-score, 0.0972 z-score and -0.0425 z-score.
Regarding “CCGATTAACATCAGATAAATTCCTGATGTTAATCGGGTCTTGATTCGCTTGACGCTGCTG”, the binding signal is -0.719 z-score with GST-Ap-NF-kB RHD; -0.397 z-score in test [1]; -0.564 z-score with GST-Co-NF-kB; 0.573 z-score in the test with GST-Dm-Relish; 0.00651 z-score with GST-Aq-NF-kB.
